Data: the supplement of paper PMC11417369
The other results are listed elsewhere or left out.

These sequences were tested on PF3D7_0420300 AP2 domain 1 (GST-tagged) (assay: gcPBM binding intensity (ln(normalized median fluorescence intensity)); higher = stronger DNA binding).
Summary of the method: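 After 1 h on an Agilent 4 × 180k array of primer-extended double-stranded 36-bp intergenic genomic probes and negative controls, bound GST-tagged P. falciparum DNA-binding domains were detected with Alexa488 anti-GST antibody and scanned at 488 nm. The domains had been expressed in E. coli, and binding took place in 1× PBS with 1% milk, 0.2 mg/ml BSA, 0.5% salmon testes DNA and 0.03% Triton X-100. Binding intensity is the highest Masliner-normalised natural-log median intensity across replicate spots of either probe orientation.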

Sequence	gcPBM binding intensity (ln)
TGTAATATATGTATTGCACACCTATAACCATTATTT [CACACA_site8422]	9.55
TATAAGTGCCGTTATACACACGTTATATAAATATTA [CACACA_site4401]	9.26
ATAATTATATTTAGTGGTACTACTTTTGATAATTAG [XGTACX_site6562]	9.14
TTCTTGTTCCTGAAAGTGCATATAACAAAAATAACA [GTGCAC_site9635]	9.01
ATAATTACATTCCATACACACATATATTTAAAGGTT [CACACA_site7403]	9.6
AATGATATATTTAAATGTACACATGAAATATAATAT [XGTACX_site2678]	9.45
TTATATTTGATAGTTTGTACATATAATTATTATCAT [XGTACX_site5676]	9.31
TATCTTCAAGTATGTACACACTATATATAATAAAAT [CACACA_site5368]	9.33
TTATCATATCATGGAAGTACAAATAAAATATATAAC [XGTACX_site1608]	9.43
TTTTCTGTGTTTACATGTACGAAAGATTAATATTAT [XGTACX_site5214]	9.22
ATTTGATAGACACATGCACACATGCAATACTTTATT [CACACA_site5633]	9.43
ATATATATATATATATCACACATTAATAATATATAT [CACACA_site5081]	9.15
TATATAAAAATATACACACACAAATGTATATATATA [CACACA_site220]	9.68
TACATACATACATACACACACATATAGATTTATATA [CACACA_site6999]	9.93
TTTTTTTTTTTTTTTAAACACACGGTGTGAAAATTA [CACACA_site3818]	8.79
TCTTTATTATTCGCCACACACATATAAATATAAATA [CACACA_site7441]	9.59
AAAACATAACATTGTTGTACTACTAATAAAATAAGT [XGTACX_site6149]	9.36
ATAATTTTGTATAATTGTACATTATTTTAAATAAAT [XGTACX_site7952]	9.07
ATCAATCATGGTTTTACACACACATGCATGTGAAAA [CACACA_site1350]	9.7
AAAAAAAAAAAAAACACACACACATAGACCTCCAAT [CACACA_site3563]	10.1
ATAACGAACACTATTACACACATACATACATATGTA [CACACA_site5092]	9.67
TTTTTTGTTACAACAGTGCAAAAAAACCTTAATGTT	8.87
ATATATATATATATATGTACATACAATTATATTCTC [XGTACX_site1133]	9.35

Sequence	gcPBM binding intensity (ln)
AATCTTCTTAATTGTAGTACACAATTTATAAACAAA [XGTACX_site8706]	8.94
TACATAAATTTTAATACATGCAAATAAAATATATAA [TGCATGCA_site131]	9.11
AAAAATCATTTAAGAACACACAAATATTTCCATTAA [CACACA_site1488]	9.35
AATAGTTATTCCAGGTGTACATAACATATAATTTAC [XGTACX_site1340]	9.31
ATCAAAAGAAGACACACACACATACCTATAAATATA [CACACA_site7736]	9.97
TTATTATTATTACTTACGCACACTTTTTTTTTTATT [CACACA_site411]	9.69
ATAGGATATTATTCCTGTACATATATATATATATAT [XGTACX_site2108]	9.17
GACAATTATATGTAGGTGCATATACAAATTTTTTAA	9.11
TTTTAAAAAAAAAAAAAATAAGATAAAATTAAATAA [GTGCAC_negctrl_site367]	8.87
ATAAAAAATATCACATAAAATAAAAAAAGAAAGGAT [XGTACX_negctrl_site294]	9.62
TATATATAAAAATATACACACTGTATTATTGTAATA [CACACA_site5959]	9.23
TATATATATACAGTAGTGCATATATTTAAAATATAT [GTGCAC_site9999]	9.18
ATATATAAAAATAAATGTACATATTCATATGATGAT [XGTACX_site3411]	9.36
ATATAAGTATATCTATGTACATACAATATAAATGTA [XGTACX_site2153]	9.09
TATATACATACATATTGTACTTATAAAGATTAATTT [XGTACX_site2203]	9.02
ACCCATATTCTTTTTACACACTTGAATAAAAAATAT [CACACA_site4797]	9.36
GAGATATAAAAGTGTACACATATTGTTATCCATATT [CACACA_site5441]	9.33
TCCCTGATGTTATTTAATATACCATAAAAAAAAAAA [CACACA_negctrl_site1472]	8.78
AATAAAAAATAAAAAAGTACATGATGAAAAGGTTTA [XGTACX_site7615]	9.49
CACACTTTATAATGTTGTACGATACATTATACCAAA [XGTACX_site941]	9.17
TATATATATATATATACATGCATACAATTTTATGAG [TGCATGCA_site466]	9.14
ATCTCAAATATAATAAATTATTAGGTATATATATAT [CACACA_negctrl_site1828]	9.13
TTTTATTCATCATATTGTACATTCTTGTATTTATAG [XGTACX_site8534]	9.33

Sequence	gcPBM binding intensity (ln)
ATATACTTACATATTACACACAATATTTTTAAATGG [CACACA_site5916]	9.52
CTTTTGCCCAAAAAGGTACACACCACAAAGTACATA [CACACA_site8169]	9.27
TTGTATATACTATACACACACATACATACATACATA [CACACA_site814]	9.85
TATTTATAATTAAATACACACATATATTATAGATTT [CACACA_site6435]	9.31
TAAATAATAATAAAATGTACATTATATATGTATATG [XGTACX_site8672]	9.21
TTTTTTTTTTTTTTCTGTACTGATACTTATAGAGTT [XGTACX_site4736]	8.9
AAATAATAAATATATCGTACAAATATCATATATAAA [XGTACX_site2771]	9.33
TCCTGTTGAGAATGGCGTACATATAAATATTATATA [XGTACX_site1841]	9.07
TTTCCTCATTTTATCATACACACTTGTTTATATGTG [CACACA_site8202]	9.51
TTTTTTCTTTTTATAACACACAGGTGAAAAATAATA [CACACA_site1850]	9.02
TATTACTTTATATATACACACATATAACATAAATGC [CACACA_site3948]	9.42
CAGGTTCTTATATAGTGTACTATAGACATTCAATTG [XGTACX_site7239]	9.14
TCTTGTTATAATAATCAATATATGGGTATACTTATG [CACACA_negctrl_site1618]	9.24
AAAAGGATTTTTTATACACACACTAACTAATGTATA [CACACA_site2356]	9.56
AAAAAAATAAATAAGACACACACAAAAAAAAAAAAA [CACACA_site8404]	9.97
ATCATGGAAAAAACAAATGGGCTACATTACCTTTTG [GTGCAC_negctrl_site487]	9.35
TTGGAGTTCATATGTGGTACACATTTAAATATATTT [XGTACX_site5582]	9.24
GATATAAACGTATATGTACATATATATATATATATA [GTGCAC_negctrl_site186]	9.5
ATAATAAATGTCTTCAATGAAGTGGAAATGCTGTTA [TGCATGCA_negctrl_site238]	9.09
ATATATACATAGAATTGTACATAATTTATGTTCATT [XGTACX_site7426]	9.26
CAAACAAATTGTGAAACACACATATATATATATATA [CACACA_site2001]	9.23
AACGTATTATTTATCTGTACAAAATAATAACGTATT [XGTACX_site813]	9.15
TTTTGTTTTTTCAATGTGCACTTAGGATGTTTTTAT [GTGCAC_site9565]	9.53

Sequence	gcPBM binding intensity (ln)
ATCCAAATTAATAATAGTACTTTTAAGTCCTATGTA [XGTACX_site2452]	9.06
TAAATAAAAATACAGTGTACTTTTTTCTATTTAAAA [XGTACX_site3288]	8.84
CCAAACAAAAAAAAAAGTACATAAAACACCTATTTG [XGTACX_site5645]	9.46
ATAATTAGGGTGTATTTCATTTCATTTCATTTTATT [CACACA_negctrl_site1418]	9.66
AATATATAAATATATACACACAAAAACATATATATA [CACACA_site1318]	9.8
TATATACAAATATGTACACACATTACAGATGTACAT [CACACA_site6586]	9.44
TAGAAAAAATAAAATAGTACACATCCAAAAAAAAAA [XGTACX_site7829]	9.6
AAAAAAAAAAACAGTTGTACATTTATTTATATATTA [XGTACX_site217]	9.13
AAAATAAGGACTGTTGTGCACTGGATTTGTGGTTAC [GTGCAC_site9830]	9.44
ATTTTAACGAATATATGTACATAAAAAAAAAAAAGA [XGTACX_site8750]	9.37
TAAGTAAAAAATTAAAAAGATTACAGGGGGGGAAGG [XGTACX_negctrl_site491]	9.96
GACATAAGATAATTACACATTGTTTCCTCAATAATA [CACACA_negctrl_site1616]	9.24
TTTCTTTAATATATAGTGCATGTAAATTTTACAATA [GTGCAC_site9679]	9.05
TAATATAATATATAGGTGCAATATTAACAAAAATTT	9.37
ATTAATATGAATAAATGTACAAATGAATGATTACAT [XGTACX_site6044]	9.31
ATAATGTGTTAGGCGTGTACACAATTGTATGGTTTA [XGTACX_site2377]	9.45
AAATAAAATCATAATGTGCGCATATAAATTTGTAGG [GTGCAC_site9662]	9.45
ATATATATATATGAAAGTACACATCTATTTTTTCTT [XGTACX_site6059]	9.28
AAGGTAGATATATTTAGTACGTAATTTTTTTTTTTT [XGTACX_site7288]	9.29
AAAATAAAATTTACTTGTACTAAAGGGATACGCGCA [XGTACX_site1453]	9.17
